Data taken from publication PMC4336329 (PLoS ONE, 2015).
Screen size: about 310,000 compounds; about 14,000 (4.5%) showed an effect of 50% or more. The effect is printed as a negative number. This is one part of the list.

Target: human ether-à-go-go-related gene (hERG) potassium channel (human, UniProt Q12809)
Assay: primary screen, population patch clamp on CHO cells stably expressing hERG
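Note: peak tail current of the secondary pulse compared with the same well before compound.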

human ether-à-go-go-related gene (hERG) potassium channel, sequence (Q12809 whole entry, looked up): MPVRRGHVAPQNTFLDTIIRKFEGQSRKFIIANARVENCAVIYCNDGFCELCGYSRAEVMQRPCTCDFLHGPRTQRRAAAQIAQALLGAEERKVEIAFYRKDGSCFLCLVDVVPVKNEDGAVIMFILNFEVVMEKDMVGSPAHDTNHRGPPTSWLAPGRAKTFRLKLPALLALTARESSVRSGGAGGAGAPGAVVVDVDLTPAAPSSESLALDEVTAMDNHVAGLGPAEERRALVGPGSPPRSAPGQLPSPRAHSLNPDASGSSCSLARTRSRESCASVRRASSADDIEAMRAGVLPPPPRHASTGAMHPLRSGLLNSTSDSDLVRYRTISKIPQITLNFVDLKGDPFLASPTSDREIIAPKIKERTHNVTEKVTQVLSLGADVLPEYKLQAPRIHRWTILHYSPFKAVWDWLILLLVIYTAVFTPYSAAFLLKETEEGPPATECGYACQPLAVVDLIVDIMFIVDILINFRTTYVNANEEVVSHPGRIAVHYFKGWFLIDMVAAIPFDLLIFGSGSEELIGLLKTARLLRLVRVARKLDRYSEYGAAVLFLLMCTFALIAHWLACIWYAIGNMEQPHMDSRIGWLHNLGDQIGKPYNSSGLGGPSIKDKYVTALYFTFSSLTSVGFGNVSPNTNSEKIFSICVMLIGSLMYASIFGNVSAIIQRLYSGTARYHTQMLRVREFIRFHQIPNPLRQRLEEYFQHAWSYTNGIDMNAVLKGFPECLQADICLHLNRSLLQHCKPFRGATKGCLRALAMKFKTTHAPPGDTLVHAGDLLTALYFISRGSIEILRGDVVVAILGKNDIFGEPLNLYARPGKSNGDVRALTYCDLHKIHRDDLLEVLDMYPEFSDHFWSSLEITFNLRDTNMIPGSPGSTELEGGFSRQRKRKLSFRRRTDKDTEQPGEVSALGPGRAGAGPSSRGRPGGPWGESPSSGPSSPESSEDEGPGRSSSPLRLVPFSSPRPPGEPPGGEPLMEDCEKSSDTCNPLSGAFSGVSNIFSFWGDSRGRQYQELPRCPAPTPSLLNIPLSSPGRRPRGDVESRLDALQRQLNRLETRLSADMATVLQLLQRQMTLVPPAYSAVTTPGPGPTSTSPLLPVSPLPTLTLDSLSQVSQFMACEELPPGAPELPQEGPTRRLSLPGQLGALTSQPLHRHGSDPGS

Structure (SMILES)	hERG current change (%, negative = inhibition) at 10uM [%]
Cc1ccc(C)c2nc3sc(C(=O)N4CCCc5ccccc54)c(N)c3cc12	-0.132
CCCCc1ccc(NC(=O)NCc2ccccn2)cc1	-1.75
Cc1ccc2c(CN3CCN(S(=O)(=O)c4ccccc4C(F)(F)F)CC3)cc(=O)oc2c1	-57.3
O=C(NC1CCN(CCc2c[nH]c3ccccc23)CC1)c1ccccc1	-71.7
O=c1cc(CNC2CCCCC2)c2ccccc2[nH]1	10.3
CCOc1ccccc1NC(=O)CSc1c(C)n[nH]c1C	10.1
COC(=O)C1=CO[C@@H](OC2OC(CO)C(O)C(O)C2O)[C@@H]2C(CO)=CC[C@H]12 (some centres unmarked)	24.6
CC(=O)N(c1ccccc1)C(C)c1nc(C#N)c(C#N)nc1C (centres unmarked)	10.3
CC(=O)c1ccc(S(=O)(=O)NCCc2csc(-c3cccnc3)n2)cc1	3.2
COc1ccc(CN2C=C3C(=O)C(C)(OC(=O)C4CCCC4)C(=O)C=C3C=C2c2ccsc2)cc1 (centres unmarked)	-64.4
CC(C)N(Cc1nc(-c2ccc3c(c2)OCO3)no1)CC1CCC(=O)N1 (centres unmarked)	11.7
O=C1CC(N2CCOCC2)C(=O)N1c1cc(Cl)cc(Cl)c1 (centres unmarked)	8.98
CCc1ccc(CNC(=O)C2CC(=O)N(CCc3ccc(C)cc3)C2)cc1 (centres unmarked)	-27.2
CCN(c1ccccc1)S(=O)(=O)c1cccc(C(=O)NCc2ccncc2)c1	-28.1
CC(=O)c1ccc(NC(=O)CSc2nc(=O)cc(N)n2-c2ccccc2)cc1	-36.6
O=C1N=C(N2CCCC2)S/C1=C\c1cccc(Br)c1	-35.8
CCN(CC)S(=O)(=O)c1ccc(O)c(C(=O)OCC(=O)Nc2ccc(OC(F)(F)F)cc2)c1	-9.19
COc1ccc(NC(=O)CN2CCN(c3ccc(F)cc3)CC2)cc1Cl	-5.96
COc1ccccc1C(=O)NCCC(=O)Nc1nc2ccccc2[nH]1	-12.6
COc1ccc(C(=O)N2N=C3CC(C)(C)OCC3C2c2ccccc2)cc1 (centres unmarked)	-24.1
COc1ccc(CN=C2NC(=O)CC(C(=O)Nc3ccccc3C)S2)cc1 (centres unmarked)	-15
CCCS(=O)(=O)c1c(S(=O)(=O)CCC)c2c(C)cccn2c1C(=O)N/N=C/c1cc(O)cc(O)c1	9.21
c1ccc(CCCNc2ncnc3nc[nH]c23)cc1	-10.4

Structure (SMILES)	hERG current change (%, negative = inhibition) at 10uM [%]
Cc1nn(Cc2ccc(Cl)cc2Cl)c(Cl)c1/C=C/C(=O)OCC(=O)NCC(F)(F)F	1.04
CCCC(=O)Nc1cccc(-c2nc3ccccc3c(=O)o2)c1	11.2
CCN1CCN(c2ccc(NC(=O)c3cccc(F)c3)cc2Cl)CC1	-75.2
COc1ccc(OC)c(C2=NS(=O)(=O)N(C)C(C(=O)NCc3ccco3)=C2)c1	-17.4
CCOc1ccc(C2=NNC(c3cccs3)=Nc3ccc(OC)cc32)cc1	-16.6
Cc1ccc2nc(-c3ccc(N4C(=O)CC(N5CCN(CCO)CC5)C4=O)cc3)sc2c1 (centres unmarked)	-3.5
CSc1cccc(NC(=O)c2c(Cl)cnn2C)c1	-4.22
CCOC(=O)c1cc2c(=O)n3ccccc3nc2n(Cc2ccco2)c1=NC(=O)c1ccc(OC)cc1	-54.3
CSc1nnc2c(n1)OC1(Nc3ccccc3-2)C(=O)Nc2ccccc21 (centres unmarked)	12.9
COCCNC(=O)C(c1ccc(C)o1)N(C(=O)c1snc(C(N)=O)c1N)c1ccc(C)c(C)c1 (centres unmarked)	-15.5
COc1cc(OC)c2c(C)cc(=O)oc2c1C(CCN1CCOCC1)c1ccc2c(c1)OCO2 (centres unmarked)	-68.4
NS(=O)(=O)OCCCc1ccc(C(F)(F)F)cc1	1.38
CC(=O)Oc1cccc(N2C(=O)C3C(C2=O)C2C=CC3C23CC3)c1 (centres unmarked)	5.03
C/C(=N\NC(=O)c1cc2ccccc2cc1O)c1cccs1	20.5
COc1ccc2sc(-c3ccc(SC)cc3)c(C#CC(C)(C)O)c2c1	11.6
c1coc(CNc2ncnc3nc[nH]c23)c1	21.6
CCOC(=O)CNC(=O)Cn1cnc2c(nnn2-c2cccc(OC)c2)c1=O	17.5
Cn1c(=O)n(C)c2cc(N3CCCC3)c(NC(=O)c3cccc(F)c3)cc21	-1.06
CC#CCN(Cc1ccco1)C(=O)c1ccc(OC2CCN(Cc3ccccn3)CC2)cc1	-60.3
CNC(=S)NNC(=O)CNc1ccc(C)c(Cl)c1	-1.25
COC(=O)c1ccc(Nc2ccc3nonc3c2[N+](=O)[O-])cc1	21.8
CCOC(=O)C(=O)NC(C)CCc1ccccc1 (centres unmarked)	6.72
CCc1ccc2c(c1)C1(NN=C(c3ccccc3)S1)C(=O)N2 (centres unmarked)	11.7

Structure (SMILES)	hERG current change (%, negative = inhibition) at 10uM [%]
CC(C)(C)CC(C)(C)NC(=S)NC1CCN(Cc2ccccc2)CC1	-16.9
COc1ccc(CCC(=O)NCc2cnn(C)c2)cc1	-32.8
CCCc1nnc(NC(=O)CCC(=O)N2CCCCC2CC)s1 (centres unmarked)	1.62
CCS(=O)(=O)NC(C)C(c1cccs1)N1CCN(C)CC1 (centres unmarked)	14.1
CCOc1ccc(C(=O)Nc2ccc3c(c2)OCCO3)cc1	-1.74
CCC(c1nnc(SCC(=O)Nc2ccc(Cl)cc2C(F)(F)F)n1C1CCCCC1)N(C)C (centres unmarked)	-5.47
O=C(CS(=O)(=O)c1ccccc1)c1ccc2c(c1)OCCO2	5.11
CCOc1cc(Br)ccc1S(=O)(=O)N1CC(C)OC(C)C1 (centres unmarked)	-15.3
CN(c1ccc(OC(=O)CC2OC(=O)c3ccccc32)cc1)S(=O)(=O)c1ccccc1 (centres unmarked)	-8.52
O=C(CSC1=NS(=O)(=O)c2ccccc2N1)Nc1cccc(F)c1	5.45
CCC(/C=C1\Sc2ccc(OC)cc2N1CC)=C\c1sc2ccc(OC)cc2[n+]1CCCS(=O)(=O)[O-]	15
COc1ccc2c(c1OC)C(=O)OC2Nc1nc(-c2cc3cc(Br)ccc3oc2=O)cs1 (centres unmarked)	12.4
CCOc1ccc(NC(=S)N2c3ccccc3CC2C)cc1 (centres unmarked)	31.1
CC(C#N)Sc1ccc(S(=O)(=O)N(C)C2CCCCC2)cn1 (centres unmarked)	-28.1
COP(=O)(OC)c1nc(-c2ccccc2)oc1NCc1ccccc1	-9.13
O=C(CSc1nnc(-c2c[nH]c3ccccc23)o1)c1ccc(-c2ccccc2)cc1	11
Cl.OC(CN1CCN(Cc2ccccc2)CC1)c1ccc(F)cc1 (centres unmarked)	-67.9
Cc1cc(C(=O)COC(=O)c2cccnc2Cl)c(C)n1CC1CCCO1 (centres unmarked)	-20.1
CCN(CC)c1cc(Cl)c2nonc2c1N	-17.4
O=C(/C=C/c1ccccc1Cl)Nc1ccc(Cl)cn1	9.22
Cc1ccc2nc(C)c3c(c2c1)N(c1ccccc1)CC3	-74.6
COc1cccc(CN(Cc2cccnc2)S(=O)(=O)c2ccc(-n3cnnn3)c(C)c2)c1	-41.6
CC(=O)c1ccc(OCC(O)COc2ccc(C(C)=O)cc2)cc1	-11.3

Structure (SMILES)	hERG current change (%, negative = inhibition) at 10uM [%]
O=C(c1cccs1)N1CCCC(N2CCN(c3ccc(F)cc3)CC2)C1 (centres unmarked)	-65.7
CC1CN(Cc2ccccc2Cl)CC(C)O1 (centres unmarked)	7.32
COCC(N)(c1ccccc1)c1nc2ccccc2n1C (centres unmarked)	-1.19
CC1CN(CC(=O)NN=C(c2ccccc2)c2ccccc2)CC(C)O1 (centres unmarked)	12.8
CN1CCN(C2=Nc3cc(Cl)ccc3Nc3ccccc32)CC1	-10.3
Cc1ccc(C(=O)NCC(=O)Nc2cc(C)ccn2)cc1	15.6
O=C(NCc1ccc(N2CCCC2=O)cc1)c1cn(CCc2ccccc2)nn1	3.47
NNC(=O)CCN1CCCCC1	10.3
O=C(Cn1cnc2c(nnn2Cc2ccc(F)cc2)c1=O)Nc1cccc(F)c1	1.5
O=C(NCC1CCCO1)c1cc2c(=O)[nH]c3ccccc3c2s1 (centres unmarked)	11.9
CCCCS(=O)(=O)NC1=NCN(Cc2ccco2)CN1	26.2
O=C(CC1SCCNC1=O)Nc1cccc([N+](=O)[O-])c1 (centres unmarked)	18.6
COc1ccc(C(=O)C(C)[n+]2ccc(-c3nnc4n3CCCCC4)cc2)cc1.[Br-] (centres unmarked)	-4.54
O=C(NNC(=O)c1ccc(-c2ccccc2)cc1)Nc1ccccc1	11.1
CC1(C)CC(=O)N(c2cccc(C(F)(F)F)c2)C(=O)C1	16.4
COc1ccc(C(=O)n2nc(C)cc2C)cc1OC	-3.18
CC(=O)c1cccc(NC(=O)C(C)OC(=O)CN2C(=O)NC(C)(C)C2=O)c1 (centres unmarked)	23.8
CC(=O)c1cccc(NC(=S)NCCc2ccc(F)cc2)c1	2.15
CCC(=O)NCCc1nc2cc(NC(=O)COc3ccccc3)ccc2n1C	16.6
Cc1cc(=O)oc2cc(OCC(=O)OCC(=O)Nc3ccc(C(C)C)cc3)ccc12	-0.188
